Laboratory results taken from the RNAGym collection of RNA variant scans (doi:10.1073/pnas.2313332121).
Variants at the floor of the assay are shown more often than the library holds them.

B1: TPR 5TU (parent)
chain: GGAUCUUCUCGAUCUAACAAAAAAGACAAAUCUGCCACAAAGCUUGAGAGCAUCUUCGGAUGCAGAGGCGGCAGCCUUCGGUGGCGCGAUAGCGCCAACGUUCUCAACUAUGACACGCAAAACGCGUGCUCCGUUGAAUGGAGUUUAUCAUG

Variants of: B1
Assay: polymerase ribozyme fitness, log enrichment relative to wild type (log ratio); higher = more active; in vitro selection for triplet polymerase activity
Procedure, shortened: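 Input and output libraries were sequenced on Illumina after a single in vitro selection round, run in triplicate on PCR-built, transcribed mutant libraries of each subunit of a heterodimeric triplet polymerase ribozyme. Selection annealed libraries to a biotinylated primer, the partner subunit and triplets, incubated them frozen at −7 °C, then gel-excised extended constructs for streptavidin-bead capture and RT-PCR. Genotypes with ≥10 input reads and ≥1 read per output were kept. Fitness is the logarithm, taken in base 2, of genotype enrichment divided by wild-type enrichment, using inverse-variance-weighted replicate averages.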

Row | Variant | polymerase ribozyme fitness (log ratio)
1 | A73G U77G C103G G136U | ≤ -4.2
2 | A73G U82A G94C G143A | ≤ -4.2
3 | A73G U101C | 0.659
4 | A73G U134C | 0.53
5 | A73G U148C | -2.55
6 | A73U A91C C93U | ≤ -4.2
7 | A73U A91G C93A C105U G143A | ≤ -4.2
8 | A73U A97G A98U C105G A106U | ≤ -4.2
9 | A73U A97G U130G | ≤ -4.2
10 | A73U A110C | ≤ -4.2
11 | A73U A150G | -2.68
12 | A73U C75A G86C A113G C125A | ≤ -4.2
13 | A73U C75A G92A | ≤ -4.2
14 | A73U C76G | ≤ -4.2
15 | A73U C76G G94A | ≤ -4.2
16 | A73U C85G C125A U135G A150U | ≤ -4.2
17 | A73U C85U | -0.649
18 | A73U C85U C103G C105G C116U A142G | ≤ -4.2
19 | A73U C87U G92A | 0.224
20 | A73U C105G | -3.79
21 | A73U C118U | -0.982

Row | Variant | polymerase ribozyme fitness (log ratio)
22 | A73U G74U A89C C93G C95G | ≤ -4.2
23 | A73U G80A C93U U146G | -3.03
24 | A73U G84A A98C G126A G141C | ≤ -4.2
25 | A73U G84U G86U | ≤ -4.2
26 | A73U G84U G152A | -3.83
27 | A73U G84U U90A U102C A122U | ≤ -4.2
28 | A73U G92U C93U C108U C125U | ≤ -4.2
29 | A73U G126U | -0.661
30 | A73U G133U A147C | ≤ -4.2
31 | A73U G141A C149A | ≤ -4.2
32 | A73U U77C G81A | ≤ -4.2
33 | A73U U82A A106G A113G G117U G124C | ≤ -4.2
34 | A73U U101C A138U | ≤ -4.2
35 | A73U U101G G117C G152U | ≤ -4.2
36 | A73U U104G C118G | ≤ -4.2
37 | G74A A91C C99U G117U G136U A147U A150C | ≤ -4.2
38 | G74A A91U G117U G141U | ≤ -4.2
39 | G74A C79U G86C U104G A115G C149G U151A | ≤ -4.2
40 | G74A C85U | -3.54
41 | G74A C85U G136C | ≤ -4.2
42 | G74A G80A C85A G92A C125A G136C A138G | ≤ -4.2

Row | Variant | polymerase ribozyme fitness (log ratio)
43 | G74A G88A U102G G143C U146G | ≤ -4.2
44 | G74A G88C U148G | ≤ -4.2
45 | G74A G141U | -2.35
46 | G74A U77A G92U G112U G124A | ≤ -4.2
47 | G74A U77G | ≤ -4.2
48 | G74A U77G C108U G133A U146C | ≤ -4.2
49 | G74A U82G G92U C99A C131A | ≤ -4.2
50 | G74C A97U C132A G141A G143C | ≤ -4.2
51 | G74C A106C U151G | ≤ -4.2
52 | G74C C75A G141U | ≤ -4.2
53 | G74C C93A G136U U151A | ≤ -4.2
54 | G74C C116G A150U | ≤ -4.2
55 | G74C C118A | ≤ -4.2
56 | G74C C131G G136U | ≤ -4.2
57 | G74C G83C C96G U145C | ≤ -4.2
58 | G74C G83C C99G A107U C116A A120G U134C U145A | ≤ -4.2
59 | G74C G88U A89U U146A | ≤ -4.2
60 | G74C G112A A147G | ≤ -4.2
61 | G74C U77C A142G | ≤ -4.2
62 | G74C U77G C99A C103A U104C C132A U135G U144A | ≤ -4.2
63 | G74C U90C C95A U135C C149G | ≤ -4.2

Row | Variant | polymerase ribozyme fitness (log ratio)
64 | G74U A89U G128C C131U | ≤ -4.2
65 | G74U A121G C123U C131U | ≤ -4.2
66 | G74U C85A A113G G133A G141A | ≤ -4.2
67 | G74U G83C C99U | ≤ -4.2
68 | G74U G83U C105A A119U U134G | ≤ -4.2
69 | G74U G88A A119U C125U | -3.95
70 | G74U G88A C103U | ≤ -4.2
71 | G74U G140A | ≤ -4.2
72 | G74U U82A | ≤ -4.2
73 | G74U U82G U102A G128U U134A G152C | ≤ -4.2
74 | G74U U111G U151G | ≤ -4.2
75 | C75A A89U C93U C116U U151G | ≤ -4.2
76 | C75A A97C C103U U151G | ≤ -4.2
77 | C75A A97U G117U U130A C131A A138C | ≤ -4.2
78 | C75A A137G U139A G141C | ≤ -4.2
79 | C75A C76A C96U | ≤ -4.2
80 | C75A C76G G86C | ≤ -4.2
81 | C75A C79A C116U | ≤ -4.2
82 | C75A C85A A137U G143U | ≤ -4.2
83 | C75A C85U G88U G94A | ≤ -4.2
84 | C75A C87A | ≤ -4.2
